Assay results taken from PMC4336329 (PLoS ONE, 2015).
In all, about 310,000 compounds went through this assay and about 2,200 (0.71%) showed an effect of 50% or more. Effects have a minus sign here. The list shows a part of the results.

biological target: human ether-à-go-go-related gene (hERG) potassium channel (human, UniProt Q12809); test: primary screen, population patch clamp on CHO cells stably expressing hERG
Sequence (Q12809 whole entry, looked up): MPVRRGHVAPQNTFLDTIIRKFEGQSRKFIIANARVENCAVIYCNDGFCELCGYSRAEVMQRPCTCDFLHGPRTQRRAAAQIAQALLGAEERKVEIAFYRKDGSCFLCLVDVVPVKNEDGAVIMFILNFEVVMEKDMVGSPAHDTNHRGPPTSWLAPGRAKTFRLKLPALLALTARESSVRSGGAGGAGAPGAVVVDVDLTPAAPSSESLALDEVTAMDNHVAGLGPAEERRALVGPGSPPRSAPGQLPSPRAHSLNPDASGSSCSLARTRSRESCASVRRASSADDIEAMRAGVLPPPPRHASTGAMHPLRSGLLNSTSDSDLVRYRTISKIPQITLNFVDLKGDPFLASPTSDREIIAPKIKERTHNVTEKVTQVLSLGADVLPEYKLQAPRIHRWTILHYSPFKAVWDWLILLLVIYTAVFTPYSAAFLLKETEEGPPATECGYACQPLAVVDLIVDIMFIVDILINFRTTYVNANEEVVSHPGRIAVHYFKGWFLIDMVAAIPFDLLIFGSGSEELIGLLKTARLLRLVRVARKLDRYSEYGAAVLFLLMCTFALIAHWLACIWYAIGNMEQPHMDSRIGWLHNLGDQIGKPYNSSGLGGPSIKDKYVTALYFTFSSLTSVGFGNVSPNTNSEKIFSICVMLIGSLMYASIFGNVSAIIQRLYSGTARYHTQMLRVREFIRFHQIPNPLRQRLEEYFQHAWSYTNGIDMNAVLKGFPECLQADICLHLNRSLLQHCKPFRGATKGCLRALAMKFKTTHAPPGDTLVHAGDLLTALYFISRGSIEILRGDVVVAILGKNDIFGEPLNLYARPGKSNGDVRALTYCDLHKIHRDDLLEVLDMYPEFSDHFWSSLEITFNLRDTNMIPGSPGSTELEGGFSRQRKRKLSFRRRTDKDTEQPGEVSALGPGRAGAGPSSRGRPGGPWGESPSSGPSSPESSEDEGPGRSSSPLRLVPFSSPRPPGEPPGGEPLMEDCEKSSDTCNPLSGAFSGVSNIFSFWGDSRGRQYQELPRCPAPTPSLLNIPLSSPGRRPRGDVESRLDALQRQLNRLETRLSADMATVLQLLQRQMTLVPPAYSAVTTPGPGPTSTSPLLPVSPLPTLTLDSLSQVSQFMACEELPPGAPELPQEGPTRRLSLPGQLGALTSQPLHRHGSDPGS

Compound	hERG current change (%, negative = inhibition) at 1uM
Cc1cc(=O)oc2cc(OCC(=O)NCCCN3CCCC3=O)c(Cl)cc12	8.81%
N/C(=N\OC(=O)c1cccnc1)c1ccc(Cl)cc1Cl	10.5%
COCCn1c(SCC(=O)c2ccc(Cl)cc2)nnc1C(C)C	15.3%
CC(=O)Oc1ccc(C2(C)CC(C)(C)NC(=S)N2C)c(OC(C)=O)c1 (stereo not shown)	8.04%
O=C(C1=C[C@H](c2csc3ccccc23)C[C@H](OCCCCO)O1)N1CCN(Cc2ccccc2)CC1	13.7%
CC(=O)NC1=NN(C(C)=O)C2(S1)C(=O)N(C(C)=O)c1ccc(C)cc12 (stereo not shown)	8.34%
O=C(c1ccco1)N1CCN(C(=O)c2cccc3c2C(=O)N(Cc2cccnc2)C3)CC1	20.2%
COc1ccc(C2=NNC(c3cccnc3)=Nc3ccc(OC)cc32)cc1	6.5%
OCCNCCCCOc1ccc(F)cc1	9.34%
COc1ccc(/C=C2\SC(N)=NC2=O)cc1Br	14.4%
CCOC(=O)c1ccc(NC(=O)c2c(N)n(C)c(=O)n(C)c2=O)cc1	9.49%
Cc1ccc(N=C2NC(=O)/C(=C/C=C/c3ccco3)S2)cc1C	18.9%
Cc1ccc(Nc2nc(N)nc(CN3CCN(c4ccccc4F)CC3)n2)cc1	-27.2%
Cn1cccc1-c1cc(C(=O)N/N=C/C=C/c2ccccc2)[nH]n1	-2.16%
C=CCc1c(C)nc2c(C(=O)O)cnn2c1C	8.08%
CCCc1nnc(NS(=O)(=O)c2ccc(OC)cc2)s1	16.5%
CCOC(=O)c1ccc(Nc2cc(C)nc3ncnn23)cc1	-3.47%
CCN(C(=S)NC(=O)CCc1ccccc1)c1ccccc1	-1.18%
Cc1cccc(Cn2c(N3CCN(C)CC3)nc3c2c(=O)n(C)c(=O)n3C)c1	-9.31%
C=C1C(C(=O)Nc2ccc(F)cc2)C1C(=O)Nc1ccc(F)cc1 (stereo not shown)	19.8%
CC(=O)c1cccc(NC(=S)N2c3ccccc3CC2C)c1 (stereo not shown)	6.39%
O=C(CSc1ccc(-c2nc3ccccc3[nH]2)cn1)Nc1ccc2c(c1)OCCO2	13.3%
O=C(Cc1ccc(Br)cc1)N/N=C/c1ccc(-c2cccc(C(=O)O)c2)o1	10.3%
CCCCN1C(Nc2ccccc2)=NC[C@@H]1CC(C)C	-4.5%
O=c1[nH]c2ccccc2nc1/C=C(\O)C(F)F	17.6%
